± gives the standard deviation of the averaged measurements. Some of the results follow.

Here are results for 45 sequences from the supplement of paper PMC11417369.

In the assay the test system is PfAP2-G AP2 domain (GST-tagged). Nature of the assay: gcPBM binding intensity (ln(normalized median fluorescence intensity)); higher = stronger DNA binding. An outline of the steps:
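DNA-binding domains from P. falciparum, fused to GST and produced in E. coli, were put on an Agilent 4 × 180k double-stranded probe array for 1 h in 1× PBS holding 1% milk, 0.2 mg/ml BSA, 0.5% salmon testes DNA and 0.03% Triton X-100. Probes were primer-extended, 36 bp long and drawn from intergenic genomic regions, with negative controls included. After Alexa488 anti-GST antibody detection and a 488 nm scan, binding intensity was set as the highest Masliner-normalised natural-log median intensity across replicate spots of either probe orientation.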
Turning to AAAAACAAACTGTGCATGCACCAAAAAAAAAAAAAA, the “gcPBM binding intensity (ln)” value turned out to be 9.92 ± 0.38.

Take “TAAACATACATATACACACACACACCCACACCCACA [CACACA_site492]”: the “gcPBM binding intensity (ln)” value was found to be 10.4 ± 0.41.

With “TGTCCTTATGGGCACACACACATATAAGAAATTTAA [CACACA_site3187]”, the “gcPBM binding intensity (ln)” value came to 10.7 ± 0.3.

For “TAAAAATAGTATACAACACACGAGGGAAAATAAAGT [CACACA_site3837]”, the “gcPBM binding intensity (ln)” value turned out to be 10.34 ± 0.099.

“ATTTTTTTATAAAATTTTTATATATTATATAAATAT [GTGCAC_negctrl_site163]”: the “gcPBM binding intensity (ln)” value worked out at 9.765 ± 0.021.

For the sequence “TATCGAGCACGGCGTGTGGAGTTACAAAGAGGAGAA [CACACA_negctrl_site40]”, the “gcPBM binding intensity (ln)” value was 9.89 ± 0.12.

Turning to “AAATGTATAATATTTTCACACACAAGAAAAAAGAAA [CACACA_site9195]”, the “gcPBM binding intensity (ln)” value is 9.825 ± 0.049.

In the case of GCCAATAAAGATGTGGTGCATTATATATATATATAT, the “gcPBM binding intensity (ln)” value turned out to be 10.2 ± 0.3.

With “TATATCTCTTTATTCACACATACGTTTTAAAATAAT [CACACA_site5542]”, the “gcPBM binding intensity (ln)” value was 10.2 ± 0.13.

In the case of “TATAAATAAAGACACACACACACACCGTATAATTAC [CACACA_site7829]”, the “gcPBM binding intensity (ln)” value worked out at 10.19 ± 0.042.

With “TAATAAAACATATATACACACATTAGATATACATAT [CACACA_site6897]”, the “gcPBM binding intensity (ln)” value amounted to 9.92 ± 0.057.

Regarding “TTCCCAACATGATATTGTACATTTAATTATAATTAA [XGTACX_site7029]”, the “gcPBM binding intensity (ln)” value came to 11 ± 0.62.

As to TATTTTTGGTTATGTGTGCACTATGAACAACAAAAT, the “gcPBM binding intensity (ln)” value amounted to 10.9 ± 0.57.

Regarding “TATATTAAAAAAAAATGTACACATATATATATATAT [XGTACX_site4524]”, the “gcPBM binding intensity (ln)” value came to 11.5 ± 1.1.

Turning to “ATATTATTAATTTGTTGTACAGTTCTTTATTTATAG [XGTACX_site7932]”, the “gcPBM binding intensity (ln)” value was determined as 11.4 ± 0.83.

“TATATGTTTGAATATACACACAACATATATATATAT [CACACA_site4066]”: the “gcPBM binding intensity (ln)” value worked out at 10.2 ± 0.65.

Turning to “CCAGGAAAAATTTATTGTACATATATTTTTATGCTC [XGTACX_site7154]”, the “gcPBM binding intensity (ln)” value turned out to be 11.1 ± 0.64.

For the sequence “TATTTTTAACAGTGCACACATAACTTAATTATATGT [CACACA_site2194]”, the “gcPBM binding intensity (ln)” value was 10.5 ± 0.28.

“ATTTTCCATATATTTTGTACATATGTATATTTTCCC [XGTACX_site7795]”: the “gcPBM binding intensity (ln)” value was 10.8 ± 0.25.

With “AAATATAAATGGTAATACACATACACACACACATAC [XGTACX_negctrl_site459]”, the “gcPBM binding intensity (ln)” value stood at 10.6 ± 0.44.

Consider “TATAAAAAATTATGTTGTACGTAATATAAAATTTGT [XGTACX_site7122]”, for which the “gcPBM binding intensity (ln)” value came to 11.4 ± 0.86.

“AATCAAAATAAATTAACACACAATTTTAATATTGTT [CACACA_site10]”: the “gcPBM binding intensity (ln)” value stood at 9.62 ± 0.15.

Regarding “GTGCATAAATCATACACACACACATATATATATATA [CACACA_site2423]”, the “gcPBM binding intensity (ln)” value came out at 10.2 ± 0.37.

For “GAAAGAAAATATTAAGTGCATATTTTAATGATACAA [GTGCAC_site9712]”, the “gcPBM binding intensity (ln)” value came to 9.955 ± 0.021.

For “ATAAAAATAAAAAAAACACACATACCTTATTTTTGT [CACACA_site5452]”, the “gcPBM binding intensity (ln)” value was 9.86 ± 0.21.

Regarding GTATAAAAGTAACTAGTGCATTACATATGAATAAAA, the “gcPBM binding intensity (ln)” value turned out to be 10.2 ± 0.15.

With “CCTTGCCCCAGGAGTTCACACACATAATAGATTGTC [CACACA_site8138]”, the “gcPBM binding intensity (ln)” value was found to be 10.14 ± 0.064.

Turning to “TCGAACGTATCATGTGTACACACAAATTGTTTTTTT [CACACA_site8623]”, the “gcPBM binding intensity (ln)” value came to 11.6 ± 0.86.

In the case of “TTTTTATTTTAAAAGAATAATTATCTAATATCTATA [CACACA_negctrl_site371]”, the “gcPBM binding intensity (ln)” value stood at 9.67 ± 0.16.

With “AGATATTTTTCTTAAGTACACACTAATTAGAAACTA [CACACA_site7897]”, the “gcPBM binding intensity (ln)” value is 11.3 ± 0.93.

For “AAGGAATAATAATAAATGTAAAGAAAAGCATACTGA [CACACA_negctrl_site36]”, the “gcPBM binding intensity (ln)” value was 9.89.

With “AAATACCTTATATATACACACTATGTTTTTCTTTTT [CACACA_site4792]”, the “gcPBM binding intensity (ln)” value came out at 9.895 ± 0.007.

“AACACGCACAGACACACACACAAAAATGATTAAAAA [CACACA_site7195]”: the “gcPBM binding intensity (ln)” value was determined as 10.6 ± 0.67.

On to “GACACCTGCATGAAAGTGCAAAATAGAAAAGGAACA [GTGCAC_site9593]”, for which the “gcPBM binding intensity (ln)” value was 10.1 ± 0.12.

As to “TTACCTCTTTGAAATATACACACTAAACATATCAAC [CACACA_site2455]”, the “gcPBM binding intensity (ln)” value turned out to be 10.1 ± 0.13.

In the case of “TCAAATTATTAAAATACACACATATTATATATATAT [CACACA_site2530]”, the “gcPBM binding intensity (ln)” value stood at 9.9 ± 0.099.

For “AGCAATTTGGGGTGTACACACACCTTATTTAAATTA [CACACA_site1157]”, the “gcPBM binding intensity (ln)” value is 11.6 ± 0.83.

For the sequence “AAAAGAAGAAACAAAACACACACAGTCTTCTTTTCT [CACACA_site9015]”, the “gcPBM binding intensity (ln)” value amounted to 9.9 ± 0.16.

“TTTATGAGGTTACTATGTACGCAAATTATGTAATAA [XGTACX_site325]”: the “gcPBM binding intensity (ln)” value was 11.5 ± 1.1.

Consider “ATTTGTGTTATTCGAAGTACGGATCATTTGAAATAA [XGTACX_site2510]”, for which the “gcPBM binding intensity (ln)” value came to 10.9 ± 0.59.

With “TATTAAAAATACATATGTACTCATAGCATAAAACAT [XGTACX_site8686]”, the “gcPBM binding intensity (ln)” value stood at 11.5 ± 0.98.

Take “TTTAGCCAATTTTTAAAGTTTAAAAAAGAAAAAAGA [CACACA_negctrl_site118]”: the “gcPBM binding intensity (ln)” value was determined as 9.96 ± 0.5.

As to “CAAATATATATTTTCTGTACAAATACAATTAATACT [XGTACX_site2694]”, the “gcPBM binding intensity (ln)” value came out at 10.8 ± 0.36.

On to “CCTTCAATTTACATAACACACATTTAACCATAATAA [CACACA_site2394]”, for which the “gcPBM binding intensity (ln)” value was found to be 10.2 ± 0.25.

For the sequence “CAAATGTAGAAAATGTGTACATAAAAAAAAAAAAAA [XGTACX_site8276]”, the “gcPBM binding intensity (ln)” value was 11.5 ± 1.2.
